# Measurements published in article PMC10763179 (Open access Macedonian journal of medical sciences, 2023).
# Legend:
# Test in all cases: NCI60 screen
# Format in all cases: cell-based, human
# [1] = tested on: K-562; conditions: K-562, Leukemia; single dose 8.3 μM
# [2] = tested on: MOLT-4; conditions: MOLT-4, Leukemia; single dose 8.3 μM
# [3] = tested on: RPMI-8226; conditions: RPMI-8226, Leukemia; single dose 8.3 μM
# [4] = tested on: SR; conditions: Leukemia, single dose 8.3 μM
# [5] = tested on: A549/ATCC; conditions: Non-small cell lung cancer, single dose 8.3 μM
# [6] = tested on: HOP-62; conditions: HOP-62, Non-small cell lung cancer; single dose 8.3 μM
# [7] = tested on: NCI-H226; conditions: NCI-H226, Non-small cell lung cancer; single dose 8.3 μM
# [8] = tested on: NCI-H23; conditions: NCI-H23, Non-small cell lung cancer; single dose 8.3 μM
# [9] = tested on: NCI-H460; conditions: NCI-H460, Non-small cell lung cancer; single dose 8.3 μM
# [10] = tested on: NCI-H522; conditions: NCI-H522, Non-small cell lung cancer; single dose 8.3 μM
# [11] = tested on: COLO 205; conditions: COLO 205, Colon cancer; single dose 8.3 μM
# [12] = tested on: HCC-2998; conditions: HCC-2998, Colon cancer; single dose 8.3 μM
# [13] = tested on: HCT-116; conditions: HCT-116, Colon cancer; single dose 8.3 μM
# [14] = tested on: HCT-15; conditions: HCT-15, Colon cancer; single dose 8.3 μM
# [15] = tested on: HT29; conditions: HT29, Colon cancer; single dose 8.3 μM
# [16] = tested on: KM12; conditions: KM12, Colon cancer; single dose 8.3 μM
# [17] = tested on: SW-620; conditions: SW-620, Colon cancer; single dose 8.3 μM
# [18] = tested on: SF-268; conditions: SF-268, tumors of the central nervous system; single dose 8.3 μM
# [19] = tested on: SF-295; conditions: SF-295, tumors of the central nervous system; single dose 8.3 μM
# [20] = tested on: SF-539; conditions: SF-539, tumors of the central nervous system; single dose 8.3 μM
# [21] = tested on: SNB-19; conditions: SNB-19, tumors of the central nervous system; single dose 8.3 μM
# [22] = tested on: SNB-75; conditions: SNB-75, tumors of the central nervous system; single dose 8.3 μM
# [23] = tested on: U251; conditions: U251, tumors of the central nervous system; single dose 8.3 μM
# [24] = tested on: MALME-3M; conditions: Melanoma, single dose 8.3 μM
# [25] = tested on: M14; conditions: M14, Melanoma; single dose 8.3 μM
# [26] = tested on: MDA-MB-435; conditions: MDA-MB-435, Melanoma; single dose 8.3 μM
# [27] = tested on: SK-MEL-2; conditions: SK-MEL-2, Melanoma; single dose 8.3 μM
# [28] = tested on: SK-MEL-28; conditions: SK-MEL-28, Melanoma; single dose 8.3 μM
# [29] = tested on: SK-MEL-5; conditions: SK-MEL-5, Melanoma; single dose 8.3 μM
# [30] = tested on: UACC-257; conditions: UACC-257, Melanoma; single dose 8.3 μM
# [31] = tested on: UACC-62; conditions: UACC-62, Melanoma; single dose 8.3 μM
# [32] = tested on: IGROV1; conditions: IGROV1, Ovarian cancer; single dose 8.3 μM
# [33] = tested on: OVCAR-3; conditions: OVCAR-3, Ovarian cancer; single dose 8.3 μM
# [34] = tested on: OVCAR-4; conditions: OVCAR-4, Ovarian cancer; single dose 8.3 μM
# [35] = tested on: OVCAR-5; conditions: OVCAR-5, Ovarian cancer; single dose 8.3 μM
# [36] = tested on: OVCAR-8; conditions: OVCAR-8, Ovarian cancer; single dose 8.3 μM
# [37] = tested on: NCI/ADR-RES; conditions: Ovarian cancer, single dose 8.3 μM
# [38] = tested on: SK-OV-3; conditions: SK-OV-3, Ovarian cancer; single dose 8.3 μM
# [39] = tested on: 786–0; conditions: 786–0, Kidney cancer; single dose 8.3 μM
# [40] = tested on: A498; conditions: A498, Kidney cancer; single dose 8.3 μM
# [41] = tested on: ACHN; conditions: Kidney cancer, single dose 8.3 μM
# [42] = tested on: CAKI-1; conditions: CAKI-1, Kidney cancer; single dose 8.3 μM
# [43] = tested on: RXF 393; conditions: RXF 393, Kidney cancer; single dose 8.3 μM
# [44] = tested on: SN12C; conditions: Kidney cancer, single dose 8.3 μM
# [45] = tested on: TK-10; conditions: TK-10, Kidney cancer; single dose 8.3 μM
# [46] = tested on: UO-31; conditions: UO-31, Kidney cancer; single dose 8.3 μM
# [47] = tested on: PC-3; conditions: PC-3, Prostate cancer; single dose 8.3 μM
# [48] = tested on: DU-145; conditions: DU-145, Prostate cancer; single dose 8.3 μM
# [49] = tested on: MCF7; conditions: MCF7, Mammary cancer; single dose 8.3 μM
# [50] = tested on: MDA-MB-231/ATCC; conditions: Mammary cancer, single dose 8.3 μM
# [51] = tested on: HS 578T; conditions: Mammary cancer, single dose 8.3 μM
# [52] = tested on: BT-549; conditions: BT-549, Mammary cancer; single dose 8.3 μM
# [53] = tested on: T-47D; conditions: Mammary cancer, single dose 8.3 μM
# [54] = tested on: MDA-MB-468; conditions: MDA-MB-468, Mammary cancer; single dose 8.3 μM
smiles,measurement,setting,value
"C=C1C(=O)O[C@@H]2[C@H]3C(C)=CC[C@@]34O[C@@]4(C)CC[C@@H]12 [Arglabin 6, arglabin]","Growth of tumor cells, %",[1],26.23%
same,"Growth of tumor cells, %",[2],59.14%
same,"Growth of tumor cells, %",[3],−5.73%
same,"Growth of tumor cells, %",[4],2.25%
same,"Growth of tumor cells, %",[5],83.94%
same,"Growth of tumor cells, %",[6],67.33%
same,"Growth of tumor cells, %",[7],103.37%
same,"Growth of tumor cells, %",[8],62.36%
same,"Growth of tumor cells, %",[9],80.10%
same,"Growth of tumor cells, %",[10],−68.86%
same,"Growth of tumor cells, %",[11],42.37%
same,"Growth of tumor cells, %",[12],102.64%
same,"Growth of tumor cells, %",[13],17.39%
same,"Growth of tumor cells, %",[14],24.60%
same,"Growth of tumor cells, %",[15],40.70%
same,"Growth of tumor cells, %",[16],95.54%
same,"Growth of tumor cells, %",[17],29.05%
same,"Growth of tumor cells, %",[18],78.99%
same,"Growth of tumor cells, %",[19],89.81%
same,"Growth of tumor cells, %",[20],54.28%
same,"Growth of tumor cells, %",[21],101.01%
same,"Growth of tumor cells, %",[22],62.66%
same,"Growth of tumor cells, %",[23],81.31%
same,"Growth of tumor cells, %",[24],67.65%
same,"Growth of tumor cells, %",[25],67.86%
same,"Growth of tumor cells, %",[26],34.20%
same,"Growth of tumor cells, %",[27],84.20%
same,"Growth of tumor cells, %",[28],88.53%
same,"Growth of tumor cells, %",[29],76.31%
same,"Growth of tumor cells, %",[30],44.07%
same,"Growth of tumor cells, %",[31],25.79%
same,"Growth of tumor cells, %",[32],98.42%
same,"Growth of tumor cells, %",[33],30.37%
same,"Growth of tumor cells, %",[34],86.04%
same,"Growth of tumor cells, %",[35],82.60%
same,"Growth of tumor cells, %",[36],72.01%
same,"Growth of tumor cells, %",[37],77.13%
same,"Growth of tumor cells, %",[38],101.08%
same,"Growth of tumor cells, %",[39],73.74%
same,"Growth of tumor cells, %",[40],71.05%
same,"Growth of tumor cells, %",[41],53.47%
same,"Growth of tumor cells, %",[42],26.61%
same,"Growth of tumor cells, %",[43],32.69%
same,"Growth of tumor cells, %",[44],64.30%
same,"Growth of tumor cells, %",[45],5.66%
same,"Growth of tumor cells, %",[46],81.56%
same,"Growth of tumor cells, %",[47],56.38%
same,"Growth of tumor cells, %",[48],11.52%
same,"Growth of tumor cells, %",[49],28.88%
same,"Growth of tumor cells, %",[50],58.15%
same,"Growth of tumor cells, %",[51],74.60%
same,"Growth of tumor cells, %",[52],27.88%
same,"Growth of tumor cells, %",[53],26.55%
same,"Growth of tumor cells, %",[54],−44.01%
